Experimental findings from the RNAGym collection of RNA variant scans (doi:10.7554/elife.90254) are described below.

To fix the notation:
B1: LINE1-mini (parent)
chain: GGCAGAGCUCAACACAGCGUGGCAAAGUGGCUGUGGCUAGACUGCC

Read counts are not given, so values of variants with three or more changes are uncertain.

This data set covers variants of B1. Kind of data set: self-cleavage, relative activity (ratio to wild type); higher = more cleavage; in vitro, sequencing; the parent is a self-cleaving ribozyme.
Take GGCAGCGCUCAACACAGCGUGGCAAAGUCGUUGUAGCUAGACUGCC: the self-cleavage was determined as 0. On to GGCAGCGCUCAACACAGCGUGGCAAAGUCCCAGUGGCUAGACUGCC, for which the self-cleavage is 0.02. The result for GGCAGCGCUCAACACAGCGUGUCAAAGUGCCUGUGGCCAGACUGCC reads 0.12; that for GGCAGCGCUCAACACAGCAUGGCAAAAUGGCUGUGGCUAGACUCCC, 0.18. As for GGCAGCGCUCAACACAGCAUGGCAAAGUGGCUGUGGGUAGACUGCC, the self-cleavage was determined as 0.03. The result for GGCAGCGCUCAACACAGCGUAGAAAAGUGGCUGUGGCUAUACUGCC reads 0.16.

As for GGCAGCGCUCAACACAGCGUUUCAAAGUGGCUGUGGCUAGACUGCC, the self-cleavage was found to be 0.77.

For GGCAGCGCUCAACACAGCGUGCCUAAGUGGCUGUGGCUAGACUGCC, the self-cleavage stood at 0.14.

With GGCAGCGCUCAACACAUCGUGGCAAAGUGGCUGUGGCCAGACUGUC, the self-cleavage is 0.02. For GGCAGCGCUCAACACAGCGUGCCAAAGUAGCCGUGGCUAGUCUGCA, the self-cleavage is 0.03. GGCAGCGCUCAACACAGCAUGGCAAAGUGGCUGUGGUUAUACUGCC: the self-cleavage was determined as 0.3. As to GGCAGCGCUCAACACAGCGUGGCAAACUGGCUGUGGUUAGACUGCC, the self-cleavage is 0.03. In the case of GGCAGCGCUCAACACAGCGUGGCAAACUGGCUGUGGAUAGACUGCC it was 0.05; in that of GGCAGCGCUCAACACAGCGUGUCAAAGUAGCUGUGGCUAGACUGCC, 0.87. GGCAGCGCUCAACACAGCGUCGAAAAGUGGCUGUGGCUAGCCUGCC: the self-cleavage was determined as 0.04. The result for GGCAGCGCUCAACACACCGUGACAAAGUGGCUGUGGCUAGACUGCC reads 0.53; that for GGCAGCGCUCAACACACCGUGGUAAAGUGGCUGUGGCUAUACUGCC, 0.24. In the case of GGCAGCGCUCAACACAGCGUGAUAAAGUGGCUGUGGCCAGACUGCC it was 0.39; in that of GGCAGCGCUCAACACAGCUUGGCAAAGUGACUGUGGCUAGACUGCC, 1.83; in that of GGCAGCGCUCAACACAGCGUUGCAAAGUGGCUUUGGCUAGACUGCC, 0.03. Consider GGCAGCGCUCAACACAGCGUAGCAACGUGGCUGUGGCUAGACUGCA, for which the self-cleavage was determined as 0.98. As for GGCAGCGCUCAACACAGCGUUGCAAAGUGGCCGUGGCUCGACUGCC, the self-cleavage is 0.02. In the case of GGCAGCGCUCAACACAGCGUGGCAAAAUCGCUGGGGCUUGACUGCC it was 0.15; in that of GGCAGCGCUCAACACAGCCUGGCAAACUGGCUGUGGCUAGACUGCC, 0.15. In the case of GGCAGCGCUCAACACAGCGUGCCAAAGUGGCUGUGGCCAGACUGCC, the self-cleavage was 0.04. On to GGCAGCGCUCAACACAGCGUUGCAAAGUGGCUGUGGCUGGAAUGCC, for which the self-cleavage is 0.01. GGCAGCGCUCAACACAGCGUGCCAAAGUGGCUGUGGCUUGACUGCC: the self-cleavage is 0.3.

For the variant GGCAGCGCUCAACACAUCGUGGCAAAGUGGCUGUAGCUAGACUGCC, the self-cleavage is 0.03.

On to GGCAGCGCUCAACACAACGUGGCAAAGUGGCUGUGGCCAGACUGCC, for which the self-cleavage is 0.05.

In the case of GGCAGCGCUCAACACAGCGUAGCAAAGUGGCUGGGGCUAGACUGCC, the self-cleavage worked out at 0.07. GGCAGCGCUCAACACAGCGUGGCAAAGUUGCUGUGGCUCAACUGCC: the self-cleavage was 0.18. As to GGCAGCGCUCAACACAGCGUAGCUUAGUGGCUGUGGCCAGAUUGCC, the self-cleavage turned out to be 0.11.

For the variant GGCAGCGCUCAACACAGCUUGGCAAAGUGGCUGUGGUUAGACUGCC, the self-cleavage was determined as 0.01.

As for GGCAGCGCUCAACACAUGGUGGCAAAGUGGCUGUGGCUAGACUGCC, the self-cleavage is 0.17. Regarding GGCAGCGCUCAACACAGCAUGGCCAAGUGGCUGUGGCUAGACGGCC, the self-cleavage was determined as 0.01. Turning to GGCAGCGCUCAACACAGCGUGCUAAGGGGGCUGUGGCCAGACUGGC, the self-cleavage came out at 0.01.

With GGCAGCGCUCAACACAGCAUGGCAAAGUGGAUGUGGCUAGACCGCC, the self-cleavage stood at 0.05. The result for GGCAGCGCUCAACACACCGUGGCAAAGUGCCUGUGGCUAGACUGCC reads 0.05; that for GGCAGCGCUCAACACACCGUGGCAAAGUGGCUGCGGCUAGACUGAC, 0.06; that for GGCAGCGCUCAACACAUCGUGGCAAAGUGGCUGUUACUAGAAUGCC, 0.05. The result for GGCAGCGCUCAACACAGCUUGCCAAAGUGGCUGUGGCUAGACUGCC reads 0.27; that for GGCAGCGCUCAACACAGCGUGGCAAACUGGCUGUAGCUAGACUGCA, 0.09. The result for GGCAGCGCUCAACACAGCAUGGCAAAGUGGCUGUGGCUAUACUGCC reads 0.17; that for GGCAGCGCUCAACACAGCGUGUCAAAGUGGCCGUGGCUAGACUGCC, 0.02. As to GGCAGCGCUCAACACAGCGUGGCAAAUUGGCUGUGGCUAGACCGCC, the self-cleavage stood at 0.06. Take GGCAGCGCUCAACACAGCCUGGCAAAGUGGCUUUGGCUAGACUGCC: the self-cleavage came out at 0.12. As to GGCAGCGCUCAACACAACGUGGCAAAGUGGCUGUGCCUAGACUGCC, the self-cleavage was determined as 0.06.

For the variant GGCAGCGCUCAACACAGCGUAGCAAUGUGGCUGUGGCUAGACUGCA, the self-cleavage was found to be 1.4. Take GGCAGCGCUCAACACAGCCUGUCAAAGUGGCUGUGACUAGCCUGCC: the self-cleavage amounted to 0.03. On to GGCAGCGCUCAACACAGCGUGCCAAAGUGGCUGUGGUUAGUCUGCC, for which the self-cleavage came out at 0.04. In the case of GGCAGCGCUCAACACAGCGUGACAAAGUGGCUGUGGCCAGACUGCC it was 0.07. Take GGCAGCGCUCAACACAGCGUGGCAAAGUUGCUGUGGCGAGACUGCC: the self-cleavage came to 0.06. In the case of GGCAGCGCUCAACACAGCGUGACAAAGUGACUGUGGCUAGAGUGCC it was 0.03.

Regarding GGCAGCGCUCAACACAUCGUGGCAAAGUGGCUGUGGCUAGACUGCA, the self-cleavage was 0.29. The result for GGCAGCGCUCAACACAUCGUGGCAAAGUGGCUGUGGCUAGAGUGCC reads 0.05. In the case of GGCAGCGCUCAACACAGCGUGGCAAAAUGGCGGCGACUAGACUGGC it was 0.01.
